Source: paper PMC4336329 (PLoS ONE, 2015)
Hit rate of the full screen: of about 310,000 compounds, about 14,000 (4.5%) showed an effect of 50% or more. The effect is printed as a negative number. The list shows a part of the results.

Each molecule was assayed against human ether-à-go-go-related gene (hERG) potassium channel (human, UniProt Q12809) (assay: primary screen, population patch clamp on CHO cells stably expressing hERG).
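Note: peak tail current of the secondary pulse compared with the same well before compound.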

human ether-à-go-go-related gene (hERG) potassium channel, sequence (Q12809 whole entry, looked up): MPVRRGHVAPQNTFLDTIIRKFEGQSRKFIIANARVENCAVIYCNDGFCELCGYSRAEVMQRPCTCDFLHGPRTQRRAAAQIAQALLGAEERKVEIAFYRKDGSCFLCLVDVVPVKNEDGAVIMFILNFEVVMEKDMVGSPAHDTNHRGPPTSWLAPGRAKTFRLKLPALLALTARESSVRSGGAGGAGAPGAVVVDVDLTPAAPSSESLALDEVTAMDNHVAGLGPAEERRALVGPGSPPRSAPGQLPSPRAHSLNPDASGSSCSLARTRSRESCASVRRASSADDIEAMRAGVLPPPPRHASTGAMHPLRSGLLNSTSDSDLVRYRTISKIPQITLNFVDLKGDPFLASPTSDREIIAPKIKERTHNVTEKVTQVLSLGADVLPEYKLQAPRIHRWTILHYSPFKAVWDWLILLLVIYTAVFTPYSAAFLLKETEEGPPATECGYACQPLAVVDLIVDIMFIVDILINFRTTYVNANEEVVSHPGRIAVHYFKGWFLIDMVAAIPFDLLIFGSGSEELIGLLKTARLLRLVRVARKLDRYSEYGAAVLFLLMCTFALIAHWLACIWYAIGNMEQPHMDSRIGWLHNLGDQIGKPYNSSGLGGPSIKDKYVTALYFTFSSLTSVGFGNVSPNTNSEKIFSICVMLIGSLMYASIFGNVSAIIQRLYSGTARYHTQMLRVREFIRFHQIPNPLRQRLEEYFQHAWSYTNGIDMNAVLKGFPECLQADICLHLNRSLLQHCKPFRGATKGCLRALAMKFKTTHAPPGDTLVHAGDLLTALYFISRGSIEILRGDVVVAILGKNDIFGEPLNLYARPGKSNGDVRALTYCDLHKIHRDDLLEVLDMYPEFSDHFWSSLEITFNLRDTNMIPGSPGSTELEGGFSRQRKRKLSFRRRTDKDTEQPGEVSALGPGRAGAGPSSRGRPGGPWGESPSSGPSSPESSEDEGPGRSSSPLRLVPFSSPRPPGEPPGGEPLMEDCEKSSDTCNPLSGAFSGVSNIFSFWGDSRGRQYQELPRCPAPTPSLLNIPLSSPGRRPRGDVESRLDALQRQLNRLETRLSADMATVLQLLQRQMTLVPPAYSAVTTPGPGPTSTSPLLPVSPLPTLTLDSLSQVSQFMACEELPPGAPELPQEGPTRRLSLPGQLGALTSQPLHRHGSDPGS

| SMILES | hERG current change (%, negative = inhibition) at 10uM |
| --- | --- |
| O=C(/C=N/O)NCCCn1ccnc1 | 3.97% |
| CCOC(=O)c1c(-c2ccc(OC)cc2)nc2nonc2c1N | -19.8% |
| Cn1c(CNC(=O)CCNC(=O)c2ccccc2)cc(=O)n(C)c1=O | 15.9% |
| CC(C)N1CCN(Cc2cccc3c2OCO3)CC1CCO (stereo not shown) | -0.928% |
| Clc1ccc(NC2=NCCC2)cc1Cl | -5.94% |
| CCCc1[nH]nc2c1C(c1cccc(OC)c1)C(C#N)=C(N)O2 (stereo not shown) | -36.5% |
| CC(C)Cn1c(N)c(C(=O)COC(=O)CCNS(=O)(=O)c2ccccc2)c(=O)n(C)c1=O | -48.4% |
| CCn1c(CSc2nc3ccccc3n2C)nc2ccccc21 | -28.9% |
| CCOc1ccc(C(=O)CCC(=O)N(CC)CC(=O)Nc2c(F)cccc2F)cc1 | -25.6% |
| O=C(Nc1ccccc1)c1cccc(N2CCCC2=O)c1 | 7.13% |
| O=C(Nc1ccccc1)NC(Cc1ccc(O)cc1)C(=O)O (stereo not shown) | 17.4% |
| Cc1ccc(C)c(NC(=O)NNS(=O)(=O)c2ccc(C)c(C)c2)c1 | 5.67% |
| COc1cc(C(=O)Cc2nc3ccccc3n2C)cc(OC)c1OC | 13.8% |
| O=C(O)CC(NC(=O)C12CC3CC(CC(C3)C1)C2)c1ccc(Cl)cc1 (stereo not shown) | 3.8% |
| CN(C)S(=O)(=O)Oc1ccc(C(=O)Nc2cccc(C(F)(F)F)c2)cc1 | 15.6% |
| COc1ccc(NC(=O)C2C3C=CC(C3)C2C(=O)NCc2ccccn2)c(OC)c1 (stereo not shown) | 30% |
| COC(=O)c1ccc(C(=O)OC)c(NC(=O)COC(=O)c2ccc(OC)c(OC)c2OC)c1 | 18.7% |
| CCOC(=O)C1CCCN(C2CC(=O)N(c3cccc(C(F)(F)F)c3)C2=O)C1.Cl (stereo not shown) | -12.4% |
| COC(=O)CSc1nc2c(c(-c3ccco3)c1C#N)CCCC2 | -1.09% |
| CCC(COC)NCc1cn(-c2ccc(OC)cc2)nc1-c1cccc(F)c1 (stereo not shown) | -70.3% |
| CN=C(Nc1cccc(Cl)c1)SC1CC(=O)N(c2ccc(OC)cc2)C1=O (stereo not shown) | 11% |
| Cc1ccc(C2=NN(C(=O)CN3CCN(C4CCS(=O)(=O)C4)CC3)C(c3ccco3)C2)cc1 (stereo not shown) | -3.72% |
| CCOc1ccc(NC(=O)CSc2nnc(C3CC3)n2C2CC2)cc1 | -15.7% |

| SMILES | hERG current change (%, negative = inhibition) at 10uM |
| --- | --- |
| Cc1ccc(NC(=O)Nc2ccccc2)nc1 | 15.4% |
| Cn1c(-c2ccc(F)cc2)cnc1NCc1ccccc1 | -46.7% |
| CC(C)(C)c1ccc(C(=O)NCc2ccccc2)cc1 | 39% |
| O=C(CCNc1n[nH]c(=O)[nH]c1=O)N1CCOCC1 | -9.49% |
| COc1ccc(-c2nc(-c3ccc(Br)o3)no2)cc1OC | 3.55% |
| O=c1[nH]nc(SCc2ccccc2)n1C1CC2C=CC1C2 (stereo not shown) | 7.61% |
| Cc1cccc(-n2nnc(C(=O)NCc3ccccn3)c2N)c1 | 0.598% |
| O=C(Nc1ccccn1)c1ccc(Br)c(S(=O)(=O)N2CCCC2)c1 | -7.5% |
| CC(C)CC(C(=O)NC1CCCCC1)N(Cc1cccs1)C(=O)c1snc(C(N)=O)c1N (stereo not shown) | 7.49% |
| COc1ccc(C(=O)OCC(=O)NC2CCCC2)c(OC)c1OC | 11% |
| COc1ccc(NC(=O)Cn2nnc(C(=O)NCc3cccs3)c2N)cc1 | 13.9% |
| Cc1ccc(CSc2nnc(C(F)(F)F)n2Cc2ccc(F)cc2)cc1 | -1.96% |
| Cc1ccccc1NC(=O)c1ccccc1NC(=O)c1ccco1 | 5% |
| COc1cccc(C2=Nn3c(nnc3-c3ccccc3O)SC2)c1 | 16.9% |
| O=C(c1ccco1)N1CCc2[nH]nc(-c3ccc(Cl)cc3)c2C1 | -21.3% |
| COc1cc(C(=O)N2CCN(C)CC2)cc(OC)c1OC.Cl | 20% |
| O=C(CSc1nnnn1C1CCCCC1)N1CCOCC1 | -9.94% |
| Nc1cc(=O)[nH]c(SCc2ccc(Cl)cc2)n1 | -11.4% |
| COc1ccccc1N1CCN(C(c2cccs2)C(C)NS(=O)(=O)c2ccccc2)CC1 (stereo not shown) | -2.4% |
| O=C(CCc1ccccc1)OCC(=O)c1ccc([N+](=O)[O-])cc1 | 20.6% |
| O=C(OCCN=C1NS(=O)(=O)c2ccccc21)c1ccncc1 | -1.44% |
| CC(Oc1ccccc1Cl)C(=O)N(Cc1cccs1)C1CCS(=O)(=O)C1 (stereo not shown) | -31.7% |
| O=C(Nc1nnc(CCN2CCCCC2)s1)C1CCCCC1 | -7.27% |
